Laboratory results reported in PubChem BioAssay AID1346428 (National Center for Advancing Translational Sciences (NCATS), 2018).
The campaign covered roughly 48,000 compounds. About 1,200 (2.5%) were called active. About 2% were inconclusive and are not listed.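 The calls were made as follows: active = activation of at least 60% and not above a set upper limit (about 1 call in 100 departs from these limits); inconclusive = activation of 40% to 60%, or above that upper limit; inactive = activation under 40%.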 The list shows a part of the results.
Also: 0% is about no effect.

The molecules below were run against Probable G-protein coupled receptor 32 (Homo sapiens) (UniProt O75388) (assay: qHTS for Agonists of Human Resolvin D1 Receptor DRV1). Conditions: CHO-K1 GPR32 beta-arrestin PathHunter luminescence, 90 min; at 76.9 µM; stronger effect = higher value; zero percent set by DMSO-only wells.
UniProt O75388, sequence (O75388 whole entry, looked up, the tested form may be a part): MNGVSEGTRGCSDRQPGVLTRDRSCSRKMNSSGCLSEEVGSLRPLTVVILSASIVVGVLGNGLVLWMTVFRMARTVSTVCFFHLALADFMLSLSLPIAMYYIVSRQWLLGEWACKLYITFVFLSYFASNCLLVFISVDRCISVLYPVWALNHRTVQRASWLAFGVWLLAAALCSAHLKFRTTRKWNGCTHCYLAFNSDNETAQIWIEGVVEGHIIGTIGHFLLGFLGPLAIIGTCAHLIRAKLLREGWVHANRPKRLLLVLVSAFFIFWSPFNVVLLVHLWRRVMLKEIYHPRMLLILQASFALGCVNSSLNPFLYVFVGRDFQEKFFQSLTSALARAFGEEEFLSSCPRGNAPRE
Method in brief: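 Agonism was scored by beta-Gal fragment complementation (chemiluminescent read, 1 h detection at ambient temperature) reporting beta-arrestin binding to GPR32 in engineered CHO-K1 cells. Compound treatment lasted 90 min at 37 C, normalized to a DMSO basal control.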
For CCOC(=O)C1CCN(c2nc3c(S(=O)(=O)c4ccc(C)c(C)c4)nnn3c3ccc(Cl)cc23)CC1, the activation was inactive: -15.7%. CC1=C(C(=O)N2CCN(c3cccc(Cl)c3)CC2)C2(CCCCC2)OC1=O was tested, and the activation was inactive: 2.55%. For COc1ccc(C2N=C(N)Nc3nc4ccccc4n32)cc1 (stereo not drawn), the activation was inactive: -6.6%. In the case of COc1ccc(N(Cc2cc3cccc(C)c3[nH]c2=O)C(=O)c2cccc(Cl)c2)cc1, the activation was inactive: -11.4%. In the case of CCc1cccc(-n2c(=O)c3cccnc3n2CC(=O)Nc2c(C)cc(C)cc2C)c1, the activation was inactive: 0.458%. With O=[N+]([O-])c1cccc2c(Br)[nH]nc12 the activation was inactive: 3.45%. With COc1ccc2nc(N(Cc3cccnc3)C(=O)Cc3ccccc3)sc2c1 the activation was inactive: -17%. CN(C)S(=O)(=O)c1ccc(C(=O)NCCSc2c(-c3ccccc3)[nH]c3ccccc23)cc1 was tested, and the activation was inactive: -18.4%. For CC(=O)N1CCc2cc(S(=O)(=O)C(C)CC(=O)Nc3ccc(Br)c(C)c3)ccc21 (stereo not drawn), the activation was inactive: 28.9%. For CC(=O)Nc1ccc(S(=O)(=O)NC2=NCN(CCO)CN2)cc1, the activation was inactive: -5.12%. Fc1cccc(-c2nnn3c2nc(NC2CCCCC2)c2ccccc23)c1 was tested, and the activation was inactive: 6.85%. COc1ccc(NC(=O)C2=C(C)Nc3ncnn3C2c2cccn2C)cc1 (stereo not drawn) was tested, and the activation was inactive: -7.58%. For CC1CCN(CC2CCN(C(=O)Nc3ccc(Br)cc3F)CC2)CC1, the activation was inactive: 8.72%. Cc1cccc(-n2c(CNC(=O)c3cccc(F)c3)nnc2SCC(=O)Nc2ccccc2F)c1 was tested, and the activation was inactive: 1.21%. COc1ccccc1CNC(=O)CN1C(=O)COc2ccc(S(=O)(=O)NC3CCCC3)cc21 was tested, and the activation was inactive: -10.9%. For O=C(C1CCN(S(=O)(=O)Cc2ccccc2)CC1)N1CCN(c2cccc(C(F)(F)F)c2)CC1, the activation was inactive: 21%. CCOC(=O)c1c(NC(=O)c2ccc(S(=O)(=O)N(C)C3CCCCC3)cc2)sc2c1CCN(C(C)C)C2 was tested, and the activation was inactive: -14.3%. For Cc1noc(C)c1S(=O)(=O)N(CC(=O)NCCc1ccccc1)c1ccc(C(C)C)cc1, the activation was inactive: -1.65%. With Cc1ccc(Cl)cc1-n1ncc2c(N3CCN(Cc4ccccc4)CC3)ncnc21 the activation was active: 85.2%. COc1ccc(Cc2cnc(N)nc2N)cc1OC was tested, and the activation was inactive: -1.04%. COC(=O)c1ccccc1NC(=O)c1sc2nc(C)cc(C)c2c1NC(=O)c1ccccc1OC was tested, and the activation was inactive: -6.29%. In the case of CCOCCCN1C(=O)c2ccccc2CC1(C)C(=O)NC1CCCCC1 (stereo not drawn), the activation was inactive: -13.5%. For Cc1ccc(CCNc2ncnc3onc(-c4ccc(Cl)cc4)c23)cc1, the activation was inactive: 3.68%. COc1ccc(CNC(=O)CN2C(=O)CSc3ccc(S(=O)(=O)N4CCC(C)CC4)cc32)cc1 was tested, and the activation was inactive: -13.3%. In the case of COc1ccc(/C=C/C(=O)Nc2nc(-c3cccs3)ns2)cc1, the activation was inactive: 14.1%. With COc1ccc(NC(=O)CSc2nc3c(oc4ccccc43)c(=O)n2Cc2ccco2)cc1Cl the activation was inactive: -3.41%. In the case of COc1ccc(CNC(=O)C2CCC(CNS(=O)(=O)c3ccc4c(c3)CCCC(=O)N4)CC2)cc1 (stereo not drawn), the activation was inactive: 1.99%. With Cc1ccc(-c2cn3c(n2)sc2cc(C(=O)NCCC4=CCCCC4)ccc23)cc1 the activation was inactive: -7.18%. For COc1cc(-c2nc(Cn3nnc(C(=O)Nc4cccc(Cl)c4)c3C)c(C)o2)cc(OC)c1OC, the activation was inactive: 1.88%. COc1ccc(-c2nc(S(=O)(=O)c3ccc(Cl)cc3)c(NCc3ccccc3)o2)cc1 was tested, and the activation was inactive: -10.2%. Nc1c(I)cc(I)c(C(=O)N(CCC(=O)O)c2ccccc2)c1I was tested, and the activation was inactive: -21.2%. For Cc1nnc(NC(=O)CSCc2cc(=O)c3ccccc3[nH]2)s1, the activation was inactive: -2.49%. With COc1cc(OC)c(NS(=O)(=O)c2c(C(=O)N3CCC(C)CC3)c(C)n(C)c2C)cc1Cl the activation was inactive: -14.5%. For Cc1cc(Nc2ccc(C(=O)O)c(O)c2)n2ncnc2n1, the activation was inactive: -77%. In the case of COc1ccc(CCNC(=O)CCn2c(=O)c3ccccc3n(Cc3ccccc3)c2=O)cc1OC, the activation was inactive: 0.658%. With CC(C)c1nn2c(=O)cc(COC(=O)c3ccccc3NC(=O)c3cccc(Cl)c3)nc2s1 the activation was inactive: -16.5%. In the case of CN(C)CCNc1oc(-c2ccc(COc3ccc(Cl)cc3)o2)nc1C#N, the activation was inactive: 0.359%. In the case of Cc1nc2ccn(Cc3cccnc3)c(=O)c2cc1C(=O)N1CCN(c2ccc(F)cc2)CC1, the activation was inactive: -6.02%. With COC(=O)c1ccccc1NC(=O)c1cnc2c(-c3cccc(C)c3)c(C)nn2c1C the activation was inactive: -7.89%. CCS(=O)(=O)N1CC(=O)N(c2ccc(Cl)cc2)C(C)(C(=O)NC2CCCCCC2)C1 (stereo not drawn) was tested, and the activation was inactive: -0.0288%. In the case of CCc1ccc(C(=O)c2cn(Cc3ccc(F)cc3)c3cc(OC)c(OC)cc3c2=O)cc1, the activation was inactive: -7.17%. With Cc1cc(C)cc(Oc2nc3c(C)cccn3c(=O)c2/C=C(\C#N)c2nc3ccccc3s2)c1 the activation was inactive: -5.13%. COc1ccc(CCNC(=O)C(C)n2c(=O)cc(C(F)(F)F)c3c(C)nn(C)c32)cc1OC (stereo not drawn) was tested, and the activation was inactive: -10.3%. With COc1ccc(N2CCN(Cc3nnc(-c4cccc(Br)c4)o3)CC2)cc1 the activation was inactive: -3.21%. COc1ccccc1Cc1nc2ccccc2nc1SCC(=O)N1CCN(c2ccccc2)CC1 was tested, and the activation was inactive: -18.4%. For Cc1ccc(C(C)C)c(OCCSc2nc3ccccc3n2CC(O)CO)c1 (stereo not drawn), the activation was inactive: -9.07%. With CC(=O)c1cc(-c2ccc(F)cc2)n(CC(=O)Nc2cc(C)cc(C)c2)c1C the activation was inactive: 0.952%. For COc1ccc(CCn2c3c(c(=O)[nH]c2=O)C(NC(=O)c2ccc(C(C)(C)C)cc2)(C(F)(F)F)C(=O)N3)cc1OC (stereo not drawn), the activation was inactive: 13%. For COc1cccc(NC(=O)/C(C#N)=C/c2c(C)n(Cc3ccc(Cl)cc3)c3ccccc23)c1, the activation was inactive: 1.66%. With CC(C)Cn1c(-c2ccc(S(=O)(=O)N3CCOCC3)cc2)csc1=Nc1cc(Cl)ccc1Cl the activation was inactive: -2.44%. O=C(NCc1ccco1)c1ccc2c(c1)N(Cc1ccc(Cl)cc1)C(=O)c1ccccc1S2 was tested, and the activation was inactive: -26.8%. In the case of CCOc1ccc(Nc2nc3c(S(=O)(=O)c4ccc(C(C)C)cc4)nnn3c3ccsc23)cc1, the activation was inactive: 2.39%. In the case of Cc1cc2nc(-c3ccc(NC(=O)c4cc5ccccc5o4)cc3)oc2cc1C, the activation was inactive: -3.47%. With CCN(CC)S(=O)(=O)c1ccc2nc(NC(=O)c3cncc(Br)c3)sc2c1 the activation was inactive: 7.48%. For CCN(C(=O)c1cc2c(=O)oc3ccc(C)cc3c2s1)c1ccccc1C, the activation was inactive: -3.94%. For Cc1ccc(OCc2nc(-c3ccc(C(=O)NCc4ccc(OC(C)C)cc4)cc3)oc2C)cc1, the activation was inactive: 11.8%. In the case of Cc1cccn2c(=O)c(C(=O)NC(C)c3ccccc3)cnc12 (stereo not drawn), the activation was inactive: -16.4%. For CCOc1ccc(N(C)S(=O)(=O)c2ccc3[nH]cc(C(=O)NCc4ccccc4)c(=O)c3c2)cc1, the activation was inactive: 0.122%. With Cc1nc2scc(C)n2c(=O)c1S(=O)(=O)NCCc1ccccc1 the activation was inactive: -0.243%. COc1ccc(Nc2oc(-c3ccc(COc4ccccc4C)o3)nc2C#N)cc1 was tested, and the activation was inactive: -19.7%. With Cc1cc(C)c(NC(=O)C(C)n2nnc3sc4c(c3c2=O)CCCC4)c(C)c1 (stereo not drawn) the activation was inactive: -8.98%. With Cc1cc(C)cc(N2C(=O)N(Cc3cccc(F)c3)c3ccccc3S2(=O)=O)c1 the activation was inactive: -14.6%. For COc1ccc(N2CCN(C(=O)CSc3n[nH]c(-c4ccccc4Cl)n3)CC2)cc1, the activation was inactive: -10.9%. With Cc1ccc(C(=O)c2cn(Cc3ccc(Cl)cc3)c3nc(C)ccc3c2=O)cc1 the activation was inactive: -3.52%. Cc1ccc(CNC(=O)c2cc(-c3ccc(Cl)cc3)on2)cc1 was tested, and the activation was inactive: 4.98%. CCN1CCN(c2ncc3c(n2)CC(c2ccccc2O)CC3=O)CC1 (stereo not drawn) was tested, and the activation was inactive: 3.94%. With CCc1ccccc1NC(=O)Nc1nnc(N(CC)c2ccccc2)s1 the activation was inactive: 5.21%. For Cc1cc(NC(=O)CN2C(=O)c3cccnc3Sc3ccccc32)ccc1Br, the activation was inactive: -8.15%. With COc1ccc(OC)c2sc(N(Cc3cccnc3)C(=O)c3ccco3)nc12 the activation was inactive: -16.3%. CN(C)c1ccc(CNC(=O)CN2CCSc3ccc(S(=O)(=O)N(C)C)cc32)cc1 was tested, and the activation was inactive: -4.7%. Cc1ccc2oc(=O)c(S(=O)(=O)c3ccc(C(C)(C)C)cc3)cc2c1 was tested, and the activation was inactive: 15.2%. In the case of CCN(c1ccccc1)S(=O)(=O)c1nnc(NC(=O)COc2cccc(C)c2)s1, the activation was inactive: 3.3%. For Cc1ccc(NC(=O)C2CCN(c3nn4cc(-c5ccc(C)cc5)nc4s3)CC2)cc1, the activation was inactive: -5.38%. In the case of CCCCCn1c(=O)[nH]c2cc(C(=O)N3CCN(c4cccc(C(F)(F)F)c4)CC3)ccc2c1=O, the activation was active: 60.8%. For Cc1ccc(CNC(=O)CNS(=O)(=O)c2cccs2)cc1, the activation was inactive: 25.8%. For CCOc1ccc(NC(=O)Cn2c(=O)n(CC(=O)NCc3ccccc3Cl)c(=O)c3sccc32)cc1, the activation was inactive: 11.1%. COc1ccc(CNC(=O)c2oc3c(c2C)-c2nn(Cc4ccc(Cl)cc4)cc2CC3)cc1 was tested, and the activation was inactive: 10.1%. For CC(C)(C)c1ccc(C(=O)Nc2sc3c(c2C#N)CCC(C(C)(C)C)C3)cc1 (stereo not drawn), the activation was inactive: -1.92%. For O=C(Nc1ccc(Br)cc1)C1CCCN1S(=O)(=O)c1ccc(F)cc1 (stereo not drawn), the activation was inactive: -4.39%. With CCN(CCCNC(=O)Cn1ncc2c3ccccc3n(C)c2c1=O)Cc1ccccc1 the activation was inactive: -3.31%. CCCSc1ncc(Cl)c(C(=O)Nc2ccc(S(=O)(=O)N(C)c3ccccc3)cc2)n1 was tested, and the activation was inactive: -22.5%. CCCCC/C=C\CC(O)/C=C/c1cccc(CC(O)CCCCO)n1 (stereo not drawn) was tested, and the activation was inactive: -7.65%. With COC(=O)c1ccc(C2c3c(-c4ccccc4O)n[nH]c3C(=O)N2Cc2cccnc2)cc1 (stereo not drawn) the activation was inactive: -17.2%.
